Measured values from PMC4336329 (PLoS ONE, 2015).
Hit rate of the full screen: of about 310,000 compounds, about 14,000 (4.5%) showed an effect of 50% or more. The effect is printed as a negative number. The list shows a part of the results.

Target: human ether-à-go-go-related gene (hERG) potassium channel (human, UniProt Q12809)
Assay: primary screen, population patch clamp on CHO cells stably expressing hERG
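Note: peak tail current of the secondary pulse compared with the same well before compound.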

Sequence of human ether-à-go-go-related gene (hERG) potassium channel (Q12809 whole entry, looked up): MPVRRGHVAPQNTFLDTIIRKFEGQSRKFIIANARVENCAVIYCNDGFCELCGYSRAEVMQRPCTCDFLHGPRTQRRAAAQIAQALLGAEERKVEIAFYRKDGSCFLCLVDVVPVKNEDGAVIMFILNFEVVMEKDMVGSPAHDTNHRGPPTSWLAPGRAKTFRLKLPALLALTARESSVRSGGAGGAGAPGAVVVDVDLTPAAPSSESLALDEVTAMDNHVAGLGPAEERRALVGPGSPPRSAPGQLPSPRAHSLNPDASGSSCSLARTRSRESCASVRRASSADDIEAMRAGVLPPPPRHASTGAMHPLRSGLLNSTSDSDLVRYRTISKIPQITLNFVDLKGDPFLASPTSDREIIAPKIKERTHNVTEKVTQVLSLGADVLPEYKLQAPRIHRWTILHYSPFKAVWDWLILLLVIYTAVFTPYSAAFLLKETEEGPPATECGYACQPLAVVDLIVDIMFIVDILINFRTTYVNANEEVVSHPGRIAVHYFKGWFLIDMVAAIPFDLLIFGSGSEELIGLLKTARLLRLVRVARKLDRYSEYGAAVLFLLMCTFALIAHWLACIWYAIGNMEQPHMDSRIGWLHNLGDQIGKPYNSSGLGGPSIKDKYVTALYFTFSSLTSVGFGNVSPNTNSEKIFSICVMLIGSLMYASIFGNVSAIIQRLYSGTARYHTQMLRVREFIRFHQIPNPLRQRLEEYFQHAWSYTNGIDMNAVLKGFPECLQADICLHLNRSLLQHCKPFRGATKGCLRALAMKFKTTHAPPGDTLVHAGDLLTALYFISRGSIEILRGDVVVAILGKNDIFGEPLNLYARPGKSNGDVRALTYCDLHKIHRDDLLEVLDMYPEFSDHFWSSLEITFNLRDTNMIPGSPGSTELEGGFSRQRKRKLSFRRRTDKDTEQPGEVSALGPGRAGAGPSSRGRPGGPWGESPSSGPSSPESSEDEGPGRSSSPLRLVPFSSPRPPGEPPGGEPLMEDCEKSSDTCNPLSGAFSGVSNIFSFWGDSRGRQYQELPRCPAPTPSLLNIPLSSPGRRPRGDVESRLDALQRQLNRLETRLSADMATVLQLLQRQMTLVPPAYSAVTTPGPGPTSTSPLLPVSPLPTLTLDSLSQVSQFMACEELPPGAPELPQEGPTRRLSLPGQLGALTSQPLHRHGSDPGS

Row | Structure (SMILES) | hERG current change (%, negative = inhibition) at 10uM
1 | COc1cc2c(cc1OC)C(c1ccc(Cl)cc1)=NCC2 | -43.6%
2 | CCN(C(=O)CN1CCN(S(=O)(=O)c2ccccc2C(F)(F)F)CC1)c1c(N)n(Cc2ccccc2)c(=O)[nH]c1=O | 13.6%
3 | N#CCCn1cc(C(=O)Nc2ccccc2Br)c(-c2ccc([N+](=O)[O-])cc2)n1 | -46.9%
4 | CC(=O)c1cn(C2OC(CO)C3OC(C)(C)OC32)c(=O)n(C)c1=O (stereo not shown) | 5.02%
5 | OC(CN1CCCCC1)Cn1c2ccc(Cl)cc2c2cc(Cl)ccc21 (stereo not shown) | -29.6%
6 | CCNC(=S)N(Cc1cccs1)Cc1cc2cc(OCC)ccc2[nH]c1=O | -5.5%
7 | Cc1nnsc1C(=O)NC(C)C12CC3CC(CC(C3)C1)C2 (stereo not shown) | 7.88%
8 | COc1ccccc1NC(=O)CN1CCCCCC1 | 8.66%
9 | C/C(=N\NC(=O)c1nn(C)cc1Br)c1cccc(NC(=O)C(C)(C)C)c1 | 4.48%
10 | COc1ccccc1Oc1ccc(S(=O)(=O)NCc2ccccn2)cc1 | 4%
11 | Cc1ccc(S(=O)(=O)NCCC(=O)NC2CC2)cc1 | 15.7%
12 | CC(C)CN(C)C(=O)CCc1nnc(Cc2cccc(C(F)(F)F)c2)o1 | -4.9%
13 | O=C(NCC(=O)N1CCOCC1)c1ccc(Br)cc1 | -0.151%
14 | O=C(O)c1ccc(CNS(=O)(=O)c2ccc(Oc3ccccc3Cl)cc2)cc1 | 11.3%
15 | CCN(CC)S(=O)(=O)c1cc(C(=O)Nc2ccccc2C(=O)O)ccc1OC | 19.2%
16 | N/C(=N\OC(=O)c1cccc2ccccc12)c1ccncc1 | -2.64%
17 | Cc1nn(Cc2c(F)c(F)c(F)c(F)c2F)c(C)c1NC(=O)c1nn(C)cc1[N+](=O)[O-] | -3.38%
18 | FC(F)(F)c1cccc(Cn2nnnc2-c2ccc(Cl)cc2)c1 | 12.6%
19 | Nc1nccc(-c2cccs2)n1 | 12%
20 | COc1ccc(-c2cc(C(=O)OCC(=O)Nc3ccc4c(c3)OCO4)c3ccccc3n2)cc1 | -8.35%
21 | CC1CCN(C(=O)c2ccc(S(=O)(=O)N3CCOCC3)cc2)CC1 | 24.9%
22 | Cn1c(SCC(=O)NC2CCCCC2)nnc1-c1ccccc1F | 11%

Row | Structure (SMILES) | hERG current change (%, negative = inhibition) at 10uM
23 | CCN1CCN(C(c2cc3cccc(C)c3[nH]c2=O)c2nnnn2Cc2ccccc2)CC1 (stereo not shown) | -16.4%
24 | Cc1cccc(C)c1OCc1cc(C(=O)NCc2cn(C)nc2C)no1 | -10.5%
25 | CCCC(=O)Nc1cc(Cl)ccc1N1CCN(C(=O)CC)CC1 | -33.1%
26 | C=CCNC(=O)c1c(N)n(Cc2ccco2)c2nc3ccccc3nc12 | -0.79%
27 | O=C(CCN1C(=O)c2ccccc2C1=O)NC1=NCCS1 | 14.8%
28 | COC(=O)c1n[nH]n(-c2cc(Cl)cc(Cl)c2)c1=O | 14.6%
29 | O=C(N/N=C/c1ccc(OCc2ccccc2)cc1)c1ccncc1 | 13.3%
30 | Cc1nnc(NC(=O)CSc2nnc(Cc3cccn3C)n2-c2cccc(C(F)(F)F)c2)s1 | 9.56%
31 | CCOc1cc(CNCCc2ccc(S(N)(=O)=O)cc2)ccc1OCc1ccc(Cl)cc1.Cl | -18.5%
32 | Cc1ccc(-c2csc3nc4ccc(C(=O)NCCO)cc4c(=O)n23)cc1 | 12.1%
33 | Cc1cc(/C=N/NC(=O)c2cccc([N+](=O)[O-])c2)c(C)n1-c1ccc(Cl)cc1Cl | -1.61%
34 | Cc1cc(C)cc(C(=O)NC(CC(N)=O)c2ccc(NCCN3CCCC3)c([N+](=O)[O-])c2)c1 (stereo not shown) | 10.5%
35 | COc1cccc(N2CCN(C(=O)c3cc4c(=O)n(Cc5ccccc5)ccc4nc3C)CC2)c1 | -49.8%
36 | CCOC(=O)C1CC(c2ccccc2)=NNC1=O (stereo not shown) | -37.6%
37 | Cn1c(=O)c(Sc2ccccc2)c(O)c2ccccc21 | 17.1%
38 | Cc1ccc2cc3cc(C(=O)N4CCN(Cc5ccccc5)CC4)sc3nc2c1 | 17.6%
39 | COc1ccc(/C=C(/NC(=O)c2ccccc2)C(=O)N2CCOCC2)cc1OC | 22.2%
40 | O=C(c1cc2c(=O)n3ccccc3nc2s1)N1CCN(Cc2ccccc2)CC1 | -27.7%
41 | Cc1cc(C)cc(C(=O)NC(CC(N)=O)c2ccc(N3CCN(c4ccccn4)CC3)c([N+](=O)[O-])c2)c1 (stereo not shown) | 15.7%
42 | COc1ccc(CNc2nc(NCc3ccc(OC)cc3)n(S(C)(=O)=O)n2)cc1 | -12.8%
43 | COc1cc(C(=O)NCCN2CCOCC2)cc(OC)c1OC | 8.25%
44 | CCn1c(C)cc(C(=O)CSc2nnnn2C2CCCC2)c1C | -53.5%

Row | Structure (SMILES) | hERG current change (%, negative = inhibition) at 10uM
45 | CCC(C)NC(=O)CSc1c2c(nc3ccccc13)CCCC2 (stereo not shown) | -7.98%
46 | CCC(CC)c1nnc(NC(=O)CN2C(=O)C3C4C=CC(C4)C3C2=O)s1 (stereo not shown) | 8.97%
47 | O=C(CN1CCN(c2cccc(Cl)c2)CC1)Nc1ccc([N+](=O)[O-])cc1C(=O)Nc1ccccc1F | 14.4%
48 | CCCCC(=O)NCCc1cc2c(OC)ccc(OC)c2[nH]c1=O | 4.53%
49 | CN(C)c1cc[n+](CC(=O)c2ccc(-c3ccccc3)cc2)cc1.[Cl-] | -2.97%
50 | CC(=O)Nc1ccc(S(=O)(=O)N2CCN(C(=O)c3ncoc3-c3cccc(C)c3)CC2)cc1 | -14%
51 | O=C(NCC(c1cccnc1)N1CCN(c2ccccc2F)CC1)c1ccco1 (stereo not shown) | -0.92%
52 | COc1ccccc1NC(=O)C(=O)NCC1COc2ccccc2O1 (stereo not shown) | 6.4%
53 | CC(=O)c1c(N2CCN(c3ccc(F)cc3)CC2)nc(=S)n(-c2ccccc2)c1C | -75%
54 | Cc1cc(NC(=O)c2ccc(F)cc2)ccc1NC(=O)c1ccco1 | 2.98%
55 | Cc1ccc(NP(=O)(c2ccc(N(C)C)cc2NC(=O)c2cccs2)N2CCOCC2)cc1 (stereo not shown) | -2.84%
56 | O=C(COC(=O)c1ccc2[nH]c3c(c2c1)CCCC3)Nc1ccccc1 | 23.3%
57 | CCN(CC)C(=O)C(=O)N/N=C/c1ccc(F)cc1 | 18.7%
58 | COc1cccc(/C=N/Nc2ccc(C(=O)O)cc2)c1O | 2.34%
59 | C/C(=N\NC(=O)CNc1cccc(C(F)(F)F)c1)c1ccc(Br)cc1 | 7.43%
60 | CCn1c(SCC(=O)NC2CC2)nnc1-c1cccc(OC)c1 | -66.6%
61 | Cc1ccccc1C(=O)NC1CCN(CC(=O)Nc2c(C)cccc2C)CC1 | -3.3%
62 | O=C(CSc1nnc(CN2CCOCC2)n1-c1ccccc1)N1CCc2ccccc21 | -2.94%
63 | COc1ccccc1C(=O)NC(CCSC)C(=O)N1CCN(C/C=C/c2ccccc2)CC1 (stereo not shown) | -109%
64 | CC(CO)(CO)N=Cc1c(O)n(-c2cccc3ccccc23)c(=O)[nH]c1=O | 18%
65 | O=C(NNC(=O)c1cc(OCC(F)(F)F)ccc1OCC(F)(F)F)c1ccc(Cl)c(Cl)c1 | 15.8%
66 | COc1cc(NC(=O)COC(=O)CCc2cc(OC)c(OC)c(OC)c2)cc(OC)c1 | 11.9%

Row | Structure (SMILES) | hERG current change (%, negative = inhibition) at 10uM
67 | CCC(=O)Nc1cc(C(=O)NCC2CCCN2CC)c(OC)cc1N(C)C (stereo not shown) | -10.4%
68 | C1=C(CCNCc2ccccc2)CCCC1.Cl | 5.16%
69 | Cc1ccc(CNc2nc3ccccc3n2C)cc1 | -24.7%
70 | COc1ccc(NC(=O)C23CC4CC(C2)CC(n2cnc(Br)n2)(C4)C3)c(C)c1 | -9.06%
71 | CCN1C(=O)[C@H]2[C@@H](c3ccc(C)cc3)N3C(=O)N(c4ccccc4)C(=O)[C@@]3(Cc3ccccc3)[C@H]2C1=O | -17.3%
72 | CN(Cc1ccccn1)C(=O)C1CCC(=O)N(Cc2cccc(F)c2)C1 (stereo not shown) | 6.47%
73 | COc1cccc(NC(=O)c2ccc(NC(=O)C(C)C)cc2)c1 | 11.7%
74 | Cc1ccc(OC(F)F)c(NC(=O)Nc2ccc3c(c2)OCO3)c1 | -0.45%
75 | CC(=O)Nc1ccc(OC/C=C(\C)Cl)cc1 | 2.75%
76 | CN(C)C(CNC(=O)c1cc(Br)ccc1Cl)c1ccco1 (stereo not shown) | 3.01%
77 | Cc1cc(C(=O)CN2C(=O)CN(C)C2=O)c(C)n1-c1cccc(S(=O)(=O)N2CCOCC2)c1 | -49.8%
78 | COc1cccc(/C=C/C(=O)OCC(=O)Nc2cc(C(F)(F)F)ccc2Cl)c1 | 8.14%
79 | O=C(Nc1ccccc1N1CCOCC1)c1cnccn1 | -11%
80 | CC(=O)c1cc(C(=O)Nc2ccc3ccccc3c2)c(C)o1 | 13.8%
81 | COc1ccc(-n2cc(C(=O)Nc3cc([N+](=O)[O-])ccc3OC)c3ccccc3c2=O)cc1 | 19.3%
82 | COc1ccc(NC(=O)CN(C)S(=O)(=O)c2cnc[nH]2)cc1 | 20.3%
83 | COC(=O)c1ccc(CNC(=O)c2c3c(nc4ccccc24)CCN(Cc2ccccc2)C3)cc1 | -16.1%
84 | CN(C)S(=O)(=O)c1ccc(N2CCCC2)c(C(=O)NNC(=O)COc2ccc(Cl)cc2)c1 | -17.7%
85 | Cc1cc(C=O)c(C)n1C(C)C | 22.6%
